Test results from the GPR68 mutational scans of Howard et al. (2025).
Scores whose standard error is large were omitted. The source holds two more conditions with little spread; they are left out. Read del as a deletion of the residues named and ins as an insertion between two positions. For some of these results: The data file names ogerin without a concentration.

B1: GPR68, Q15743 (parent)
chain: MGNITADNSSMSCTIDHTIHQTLAPVVYVTVLVVGFPANCLSLYFGYLQIKARNELGVYLCNLTVADLFYICSLPFWLQYVLQHDNWSHGDLSCQVCGILLYENIYISVGFLCCISVDRYLAVAHPFRFHQFRTLKAAVGVSVVIWAKELLTSIYFLMHEEVIEDENQHRVCFEHYPIQAWQRAINYYRFLVGFLFPICLLLASYQGILRAVRRSHGTQKSRKDQIQRLVLSTVVIFLACFLPYHVLLLVRSVWEASCDFAKGVFNAYHFSLLLTSFNCVADPVLYCFVSETTHRDLARLRGACLAFLTCSRTGRAREAYPLGAPEASGKSGAQGEEPELLTKLHPAFQTPNSPGSGGFPTGRLA

Tests used:
[1] = variants of: B1; assay: cAMP reporter score (Enrich2 score, wild type = 0); higher = more signal; HEK293T, FACS bins
[2] = variants of: B1; assay: surface expression score (Enrich2 score, wild type = 0); higher = more signal; HEK293T, FACS bins

## D16W
[1]; pH 5.5
  cAMP reporter score: -1.39
[1]; pH 6
  cAMP reporter score: -0.817
[1]; pH 6, modulator: ogerin
  cAMP reporter score: -1.23
[1]; pH 6.5, modulator: ogerin
  cAMP reporter score: -0.679
[2]
  surface expression score: -1.27

## D16Y
[1]; pH 5.5
  cAMP reporter score: -0.882
[1]; pH 6
  cAMP reporter score: -0.849
[1]; pH 6, modulator: ogerin
  cAMP reporter score: -1.02
[1]; pH 6.5, modulator: ogerin
  cAMP reporter score: -1.17
[2]
  surface expression score: 0.076

## D16_H17del
[1]; pH 5.5
  cAMP reporter score: -1.46
[1]; pH 6
  cAMP reporter score: -0.796
[1]; pH 6, modulator: ogerin
  cAMP reporter score: -1.35
[1]; pH 6.5, modulator: ogerin
  cAMP reporter score: -0.301
[2]
  surface expression score: 1.13

## D16_H17insGS
[1]; pH 5.5
  cAMP reporter score: -0.415
[1]; pH 6
  cAMP reporter score: -0.132
[1]; pH 6, modulator: ogerin
  cAMP reporter score: -0.457
[1]; pH 6.5, modulator: ogerin
  cAMP reporter score: -0.678
[2]
  surface expression score: -1.22

## H17_I19del
[1]; pH 5.5
  cAMP reporter score: -1.88
[1]; pH 6
  cAMP reporter score: -0.625
[1]; pH 6, modulator: ogerin
  cAMP reporter score: -1.72
[1]; pH 6.5, modulator: ogerin
  cAMP reporter score: -0.842
[2]
  surface expression score: -1.91

## H17_T18insGS
[1]; pH 5.5
  cAMP reporter score: 0.255
[1]; pH 6
  cAMP reporter score: 0.414
[1]; pH 6, modulator: ogerin
  cAMP reporter score: 0.522
[1]; pH 6.5, modulator: ogerin
  cAMP reporter score: 1.03
[2]
  surface expression score: 0.441

## H17_T18insGSG
[1]; pH 5.5
  cAMP reporter score: 0.73
[1]; pH 6
  cAMP reporter score: -0.478
[1]; pH 6, modulator: ogerin
  cAMP reporter score: 0.457
[1]; pH 6.5, modulator: ogerin
  cAMP reporter score: 1.15
[2]
  surface expression score: 0.706

## H17del
[1]; pH 5.5
  cAMP reporter score: -0.656
[1]; pH 6
  cAMP reporter score: -1.02
[1]; pH 6, modulator: ogerin
  cAMP reporter score: -1.04
[1]; pH 6.5, modulator: ogerin
  cAMP reporter score: -0.643
[2]
  surface expression score: 0.193

## T18_I19insG
[1]; pH 5.5
  cAMP reporter score: 0.563
[1]; pH 6
  cAMP reporter score: 1.68
[1]; pH 6, modulator: ogerin
  cAMP reporter score: -0.038
[1]; pH 6.5, modulator: ogerin
  cAMP reporter score: 0.638
[2]
  surface expression score: -0.299

## T18del
[1]; pH 5.5
  cAMP reporter score: -1.8
[1]; pH 6
  cAMP reporter score: -0.791
[1]; pH 6, modulator: ogerin
  cAMP reporter score: -1.91
[1]; pH 6.5, modulator: ogerin
  cAMP reporter score: -1.5
[2]
  surface expression score: -0.502

## I19_H20del
[1]; pH 5.5
  cAMP reporter score: -1.32
[1]; pH 6
  cAMP reporter score: -1.45
[1]; pH 6, modulator: ogerin
  cAMP reporter score: -1.93
[1]; pH 6.5, modulator: ogerin
  cAMP reporter score: -1.38
[2]
  surface expression score: -1.72

## I19_H20insGS
[1]; pH 5.5
  cAMP reporter score: -1.05
[1]; pH 6
  cAMP reporter score: -0.036
[1]; pH 6, modulator: ogerin
  cAMP reporter score: -1.71
[1]; pH 6.5, modulator: ogerin
  cAMP reporter score: -0.362
[2]
  surface expression score: -2.28

## I19_H20insGSG
[1]; pH 5.5
  cAMP reporter score: -2.05
[1]; pH 6
  cAMP reporter score: -0.668
[1]; pH 6, modulator: ogerin
  cAMP reporter score: -1.78
[1]; pH 6.5, modulator: ogerin
  cAMP reporter score: -1.07
[2]
  surface expression score: -2.11

## H20A
[1]; pH 5.5
  cAMP reporter score: -0.962
[1]; pH 6
  cAMP reporter score: -0.764
[1]; pH 6, modulator: ogerin
  cAMP reporter score: -1.43
[1]; pH 6.5, modulator: ogerin
  cAMP reporter score: -1.28
[2]
  surface expression score: 1.79

## H20C
[1]; pH 5.5
  cAMP reporter score: -1.11
[1]; pH 6
  cAMP reporter score: -1.28
[1]; pH 6, modulator: ogerin
  cAMP reporter score: -1.42
[1]; pH 6.5, modulator: ogerin
  cAMP reporter score: -0.66
[2]
  surface expression score: -0.145

## H20D
[1]; pH 5.5
  cAMP reporter score: -1.33
[1]; pH 6, modulator: ogerin
  cAMP reporter score: -1.62
[1]; pH 6.5, modulator: ogerin
  cAMP reporter score: -1.82
[2]
  surface expression score: -1.11

## H20E
[1]; pH 5.5
  cAMP reporter score: -0.989
[1]; pH 6
  cAMP reporter score: -0.477
[1]; pH 6, modulator: ogerin
  cAMP reporter score: -1.19
[1]; pH 6.5, modulator: ogerin
  cAMP reporter score: -1.24
[2]
  surface expression score: -0.895

## H20F
[1]; pH 5.5
  cAMP reporter score: 0.197
[1]; pH 6
  cAMP reporter score: 0.012
[1]; pH 6, modulator: ogerin
  cAMP reporter score: -0.893
[1]; pH 6.5, modulator: ogerin
  cAMP reporter score: -0.67
[2]
  surface expression score: 1.93

## H20G
[1]; pH 5.5
  cAMP reporter score: -1.03
[1]; pH 6
  cAMP reporter score: -0.975
[1]; pH 6, modulator: ogerin
  cAMP reporter score: -0.863
[1]; pH 6.5, modulator: ogerin
  cAMP reporter score: -0.859
[2]
  surface expression score: 1.82

## H20I
[1]; pH 5.5
  cAMP reporter score: -0.853
[1]; pH 6
  cAMP reporter score: -0.526
[1]; pH 6, modulator: ogerin
  cAMP reporter score: -1.12
[1]; pH 6.5, modulator: ogerin
  cAMP reporter score: -0.923
[2]
  surface expression score: 2.34

## H20K
[1]; pH 5.5
  cAMP reporter score: 0.834
[1]; pH 6
  cAMP reporter score: 2.29
[1]; pH 6, modulator: ogerin
  cAMP reporter score: 1.37
[1]; pH 6.5, modulator: ogerin
  cAMP reporter score: 3.38
[2]
  surface expression score: -0.077

## H20L
[1]; pH 5.5
  cAMP reporter score: -1.03
[1]; pH 6
  cAMP reporter score: -0.504
[1]; pH 6, modulator: ogerin
  cAMP reporter score: -1.2
[1]; pH 6.5, modulator: ogerin
  cAMP reporter score: -1.07
[2]
  surface expression score: 1.34

## H20M
[1]; pH 5.5
  cAMP reporter score: -1.06
[1]; pH 6
  cAMP reporter score: -0.609
[1]; pH 6, modulator: ogerin
  cAMP reporter score: -1.26
[1]; pH 6.5, modulator: ogerin
  cAMP reporter score: -1.04
[2]
  surface expression score: 1.84

## H20N
[1]; pH 5.5
  cAMP reporter score: -0.855
[1]; pH 6
  cAMP reporter score: -0.284
[1]; pH 6, modulator: ogerin
  cAMP reporter score: -0.972
[1]; pH 6.5, modulator: ogerin
  cAMP reporter score: -0.929
[2]
  surface expression score: -0.58

## H20P
[1]; pH 5.5
  cAMP reporter score: -1.28
[1]; pH 6, modulator: ogerin
  cAMP reporter score: -0.614
[1]; pH 6.5, modulator: ogerin
  cAMP reporter score: -1.07
[2]
  surface expression score: 0.506

## H20Q
[1]; pH 5.5
  cAMP reporter score: -0.567
[1]; pH 6
  cAMP reporter score: -0.602
[1]; pH 6, modulator: ogerin
  cAMP reporter score: -0.31
[1]; pH 6.5, modulator: ogerin
  cAMP reporter score: -1.38
[2]
  surface expression score: 1.01

## H20R
[1]; pH 5.5
  cAMP reporter score: 0.781
[1]; pH 6, modulator: ogerin
  cAMP reporter score: 1.9
[1]; pH 6.5, modulator: ogerin
  cAMP reporter score: 3.06
[2]
  surface expression score: 1.74

## H20S
[1]; pH 5.5
  cAMP reporter score: -0.512
[1]; pH 6
  cAMP reporter score: -0.208
[1]; pH 6, modulator: ogerin
  cAMP reporter score: -0.636
[1]; pH 6.5, modulator: ogerin
  cAMP reporter score: -0.841
[2]
  surface expression score: 1

## H20T
[1]; pH 5.5
  cAMP reporter score: -0.883
[1]; pH 6
  cAMP reporter score: -0.014
[1]; pH 6, modulator: ogerin
  cAMP reporter score: -0.261
[1]; pH 6.5, modulator: ogerin
  cAMP reporter score: -0.453
[2]
  surface expression score: -1.12

## H20V
[1]; pH 5.5
  cAMP reporter score: -1.06
[1]; pH 6
  cAMP reporter score: -0.359
[1]; pH 6.5, modulator: ogerin
  cAMP reporter score: -1.18
[2]
  surface expression score: 2

## H20W
[1]; pH 5.5
  cAMP reporter score: -0.86
[1]; pH 6
  cAMP reporter score: -0.353
[1]; pH 6, modulator: ogerin
  cAMP reporter score: -1.32
[1]; pH 6.5, modulator: ogerin
  cAMP reporter score: -0.602
[2]
  surface expression score: 2.13
